Substrate: Cc1cc2c(F)c(Oc3ncnn4cc(OC[C@@H](C)O)c(C)c34)ccc2[nH]1
Assay: Activity of human CYP3A4 assessed as enzyme-mediated (R)-1-(4-(4-fluoro-2-(hydroxymethyl)-1H-indol-5-yloxy)-5-methylpyrrolo[1,2-f][1,2,4]triazin-6-yloxy)propan-2-ol formation in presence of NADPH
Type: ADME

B1: Cytochrome P450 3A4 (Homo sapiens) (protein)
chain: MALIPDLAMETWLLLAVSLVLLYLYGTHSHGLFKKLGIPGPTPLPFLGNILSYHKGFCMFDMECHKKYGKVWGFYDGQQPVLAITDPDMIKTVLVKECYSVFTNRRPFGPVGFMKSAISIAEDEEWKRLRSLLSPTFTSGKLKEMVPIIAQYGDVLVRNLRREAETGKPVTLKDVFGAYSMDVITSTSFGVNIDSLNNPQDPFVENTKKLLRFDFLDPFFLSITVFPFLIPILEVLNICVFPREVTNFLRKSVKRMKESRLEDTQKHRVDFLQLMIDSQNSKETESHKALSDLELVAQSIIFIFAGYETTSSVLSFIMYELATHPDVQQKLQEEIDAVLPNKAPPTYDTVLQMEYLDMVVNETLRLFPIAMRLERVCKKDVEINGMFIPKGVVVMIPSYALHRDPKYWTEPEKFLPERFSKKNKDNIDPYIYTPFGSGPRNCIGMRFALMNMKLALIRVLQNFSFKPCKETQIPLKLSLGGLLQPEKPVVLKVESRDGTVSGA
- Km: 32.7 µM
- Vmax: 5.3e-07 µmol/min
